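Five concentrations, 48 hours, 96-well plates. GI50 = concentration required for 50% inhibition of growth. At the TGI there is no net growth.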
The compounds below were run on NCI-H322M lung (assay: DTP human tumour cell line panel, 48 h).

Going from `CNC(=O)NCC1OC(n2cnc3c(NC(=O)Nc4ccccc4)ncnc32)C(O[Si](C)(C)C(C)(C)C)C1CC(=O)N(C)OC` (centres undefined) to `COc1ccc(-c2cc(-c3ccccc3)nc(SCCCC(=O)NO)n2)cc1OC`, the GI50 falls from over 100 µM to 2.12 µM.

`COc1cc(/C=C/c2cc(/C=C/c3ccc(O)c(OC)c3)n(-c3c(Cl)cccc3Cl)c(=O)n2)ccc1O` and `COc1cc(-c2ccc(-c3ccc(C(=N)N)cc3)s2)cc(OC)c1OC` are within 1.5-fold of each other in GI50: 4.14 µM for the first, 3.13 µM for the second.

Going from `COc1cccc(/C=N/[N-]C(=O)c2ccncc2)c1[O-].[Ni+2].[OH3+]` to `CCO/C=N/C1=C(C#N)C(c2ccc(OC)cc2)c2sc3c(F)cccc3c2O1` (centres undefined), the GI50 falls from over 100 µM to 6.27 µM.

Compared with `COc1cc2c(cc1I)-c1c(cc(OC)c(OC)c1OC)CC[C@@H]2NC(C)=O`, `COC1/C=C\C=C(/C)C(=O)NC2=CC(=O)C(N)=C(CC(C)CC(OC)C(O)C(C)C=C(C)C1OC(N)=O)C2=O` (centres undefined) is 33-fold lower in GI50: 0.577 µM for the first, 0.0173 µM for the second.

First: CS(=O)(=O)O[C@H]1C(=O)N(c2cc3c4ccccc4ccc3c3ccccc23)[C@@H]1c1ccccc1
Second: CC(=O)NS(=O)(=O)c1ccc(-n2nc(-c3ccc(Cl)cc3)cc2-c2cc(O)ccc2O)cc1
The GI50 of the first is 26-fold lower: 0.825 µM for the first, 21.4 µM for the second.

`Cn1ccc(=O)c2c(O)c3ccccc3c(O)c21` and `O=C([O-])c1cc(I)cc(I)c1[OH2+].O=C([O-])c1cc(I)cc(I)c1[OH2+].[Mn+2]` are within 1.5-fold of each other in GI50: 38.7 µM for the first, 28.9 µM for the second.

`Clc1ccc(OCc2nn3c(CCCCc4nnc5sc(COc6ccc(Cl)cc6Cl)nn45)nnc3s2)c(Cl)c1` showed a GI50 of 20 µM.

Going from `CNC(=O)NCC1OC(n2cnc3c(NC(=O)Nc4ccccc4)ncnc32)C(O[Si](C)(C)C(C)(C)C)C1CC(=O)N(C)OC` (centres undefined) to `CC[C@]12C=CCN3CC[C@@]4(c5cc(N=O)c(OC)cc5N(C)[C@H]4[C@@](O)(C(=O)NC(Cc4c[nH]c5ccccc45)C(=O)OC)[C@@H]1O)[C@@H]32` (some centres undefined), the TGI falls from over 100 µM to 28.6 µM.

`COc1ccc(-c2cc(-c3ccccc3)nc(SCCCC(=O)NO)n2)cc1OC` and `COc1cc(-c2ccc(-c3ccc(C(=N)N)cc3)s2)cc(OC)c1OC` are within 1.5-fold of each other in TGI: 11.7 µM for the first, 12.8 µM for the second.

First: COc1cc(/C=C/c2cc(/C=C/c3ccc(O)c(OC)c3)n(-c3c(Cl)cccc3Cl)c(=O)n2)ccc1O
Second: CC(=O)NS(=O)(=O)c1ccc(-n2nc(-c3ccc(Cl)cc3)cc2-c2cc(O)ccc2O)cc1
The TGI of the first is 4.4-fold lower: 16.4 µM for the first, 72.6 µM for the second.

`COc1cccc(/C=N/[N-]C(=O)c2ccncc2)c1[O-].[Ni+2].[OH3+]` and `CCO/C=N/C1=C(C#N)C(c2ccc(OC)cc2)c2sc3c(F)cccc3c2O1` (centres undefined) cannot be ordered by TGI: over 100 µM for the first, over 100 µM for the second.

`O=C(CC1(O)C(=O)Nc2c(Cl)ccc(Cl)c21)c1ccco1` (centres undefined) and `CCOC(=O)C1C(=O)C=C(c2cc(C)ccc2O)CC1c1cccc(Cl)c1` (centres undefined) cannot be ordered by TGI: over 100 µM for the first, over 100 µM for the second.

`O=C1Nc2cc(Cl)ccc2C(=O)N2CCC[C@@H]12` and `Cc1cnc(-n2c(C)nc3cc(Cl)ccc3c2=O)s1` cannot be ordered by TGI: over 100 µM for the first, over 100 µM for the second.

`COc1cc2c(cc1I)-c1c(cc(OC)c(OC)c1OC)CC[C@@H]2NC(C)=O` and `COc1cc(OC)c2c(c1-c1ccc(C)cc1)CC(C)N(Cc1ccccc1)[C@H]2C` (some centres undefined) cannot be ordered by TGI: over 91.7 µM for the first, over 100 µM for the second.

`O=C1C(Cl)=C(N2CCN(CCOCCO)CC2)C(=O)c2ncccc21` and `CC(C)OC(=O)C1=C2c3ncccc3C(=O)N2[C@@H](Cl)[C@H](Cl)[C@H]1Cl` cannot be ordered by TGI: over 10 µM for the first, over 100 µM for the second.

Going from `Cc1c2c(cc3c1[nH]c1ccccc13)C(c1ccc(Cl)cc1)=NCC2` to `O=c1c(-c2ccccc2)c2n(c3ccccc13)CCN2`, the TGI rises from 8.74 µM to over 100 µM.

First: CC(=O)O[C@H]1C(=O)[C@@]2(C)[C@H]([C@H](OC(=O)c3ccccc3)[C@]3(O)C[C@H](OC(=O)[C@H](O)[C@@H](NC(=O)c4ccccc4)c4ccccc4C)C(C)=C1C3(C)C)[C@]1(OC(C)=O)CO[C@@H]1C[C@@H]2O
Second: CS(=O)(=O)O[C@H]1C(=O)N(c2cc3c4ccccc4ccc3c3ccccc23)[C@@H]1c1ccccc1
The TGI of the first is lower: 24.6 µM for the first, over 100 µM for the second.

`O=C(CSc1nnc(SCC(=O)NN=C2CCCCC2)s1)NN=C1CCCCC1` and `O=CN(CCN1CCCC1)C1CCc2cc(Cl)c(Cl)cc2C1` (centres undefined) cannot be ordered by TGI: over 100 µM for the first, over 100 µM for the second.

`O=C(/C=C/NC(=O)OCc1ccccc1)OCc1ccccc1` and `ClC(Cl)(Cl)C(N1CCN(c2ccccc2)CC1)N1CCN(c2ccccc2)CC1` cannot be ordered by TGI: over 100 µM for the first, over 100 µM for the second.

`CCOC(=O)c1csc(NC(=O)CN(C)C)n1` and `C/C(=C\COc1cc(O)c2c(c1)C(=O)c1cc(C)cc(O)c1C2=O)CCC1OC1(C)C` (centres undefined) cannot be ordered by TGI: over 100 µM for the first, over 100 µM for the second.

Going from `CC(C)OC(=O)[C@@H]1OC(C)(C)O[C@H]1C(=O)OC(C)C` to `C[C@@]1(Br)C[C@@](C)(Cl)[C@@H](Br)CC1/C=C/Cl` (some centres undefined), the TGI falls from over 100 µM to 42.7 µM.

Compared with `CCCCCCCCOCC(CO)OCCCCCCCC` (centres undefined), `CCN(CC)CCNc1ccc2nnn3c4ccc([N+](=O)[O-])cc4c(=O)c1c23` is higher in TGI: 35 µM for the first, over 100 µM for the second.

`OC(c1ccoc1)c1cc2ccccc2s1` (centres undefined) and `Cn1ccc(=O)c2c(O)c3ccccc3c(O)c21` cannot be ordered by TGI: over 10 µM for the first, over 100 µM for the second.

Going from `O=C([O-])c1cc(I)cc(I)c1[OH2+].O=C([O-])c1cc(I)cc(I)c1[OH2+].[Mn+2]` to `Clc1ccc(OCc2nn3c(CCCCc4nnc5sc(COc6ccc(Cl)cc6Cl)nn45)nnc3s2)c(Cl)c1`, the TGI falls from over 100 µM to 72.3 µM.

`Cc1cc2c(s1)C(N)CC2=O` (centres undefined) and `COc1ccc(O)c(/C=N/NC(=S)N2CCCCC2)c1` cannot be ordered by TGI: over 100 µM for the first, over 100 µM for the second.

From PubChem BioAssay (NCI)
